Assay [1] deals with T1, Serine/threonine-protein kinase D2 (Homo sapiens) (UniProt Q9BZL6).
T1 sequence (whole entry): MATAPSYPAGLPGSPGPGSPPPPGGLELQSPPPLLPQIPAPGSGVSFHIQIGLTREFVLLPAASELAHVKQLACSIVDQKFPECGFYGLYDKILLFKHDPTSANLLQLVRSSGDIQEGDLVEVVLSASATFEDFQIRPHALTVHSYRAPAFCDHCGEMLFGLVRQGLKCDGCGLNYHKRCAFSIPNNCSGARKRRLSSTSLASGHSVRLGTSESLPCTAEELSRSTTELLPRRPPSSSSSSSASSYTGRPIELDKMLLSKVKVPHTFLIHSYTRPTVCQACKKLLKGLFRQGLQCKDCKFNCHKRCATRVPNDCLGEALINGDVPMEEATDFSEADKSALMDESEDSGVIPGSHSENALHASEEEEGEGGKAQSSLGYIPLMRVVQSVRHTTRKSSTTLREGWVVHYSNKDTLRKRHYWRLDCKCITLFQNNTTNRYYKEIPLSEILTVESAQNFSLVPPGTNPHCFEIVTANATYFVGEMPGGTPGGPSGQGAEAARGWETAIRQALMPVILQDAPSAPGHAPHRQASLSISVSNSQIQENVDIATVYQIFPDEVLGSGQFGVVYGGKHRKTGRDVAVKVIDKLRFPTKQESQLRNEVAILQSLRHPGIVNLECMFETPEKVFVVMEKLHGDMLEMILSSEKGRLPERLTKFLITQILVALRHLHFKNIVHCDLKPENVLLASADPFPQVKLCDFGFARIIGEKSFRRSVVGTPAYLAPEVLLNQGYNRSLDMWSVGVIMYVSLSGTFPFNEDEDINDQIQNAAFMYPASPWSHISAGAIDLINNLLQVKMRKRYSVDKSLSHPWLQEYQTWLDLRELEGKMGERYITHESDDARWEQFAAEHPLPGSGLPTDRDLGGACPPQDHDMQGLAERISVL
Particulars: at 1 µM.

In assay [2] the target is T2, Serine/threonine-protein kinase D3 (Homo sapiens) (UniProt O94806).
T2 sequence (whole entry): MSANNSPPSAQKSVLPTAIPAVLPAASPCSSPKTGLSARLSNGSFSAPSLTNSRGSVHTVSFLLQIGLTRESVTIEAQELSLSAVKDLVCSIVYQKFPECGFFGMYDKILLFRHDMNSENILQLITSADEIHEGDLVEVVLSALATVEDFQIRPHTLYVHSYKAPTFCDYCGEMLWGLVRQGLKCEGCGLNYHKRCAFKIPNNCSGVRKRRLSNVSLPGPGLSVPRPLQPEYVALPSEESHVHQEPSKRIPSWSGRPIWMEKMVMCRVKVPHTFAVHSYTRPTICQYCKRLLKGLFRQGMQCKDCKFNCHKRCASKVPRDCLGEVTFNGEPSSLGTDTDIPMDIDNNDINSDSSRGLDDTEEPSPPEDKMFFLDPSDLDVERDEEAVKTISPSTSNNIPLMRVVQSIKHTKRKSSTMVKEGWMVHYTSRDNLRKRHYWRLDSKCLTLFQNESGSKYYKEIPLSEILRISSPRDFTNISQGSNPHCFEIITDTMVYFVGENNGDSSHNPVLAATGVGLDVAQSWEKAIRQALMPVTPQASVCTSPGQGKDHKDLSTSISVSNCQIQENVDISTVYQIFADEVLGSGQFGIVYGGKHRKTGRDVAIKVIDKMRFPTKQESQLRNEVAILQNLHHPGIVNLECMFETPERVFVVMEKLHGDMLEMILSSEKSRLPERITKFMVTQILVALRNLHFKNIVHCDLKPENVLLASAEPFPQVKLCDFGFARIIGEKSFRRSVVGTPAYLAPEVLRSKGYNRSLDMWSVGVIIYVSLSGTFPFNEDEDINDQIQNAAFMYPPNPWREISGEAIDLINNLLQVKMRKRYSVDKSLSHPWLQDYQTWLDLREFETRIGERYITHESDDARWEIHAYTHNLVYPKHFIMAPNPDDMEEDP
Particulars: at 0.1 µM.

Assay [3] has as its target T2, Serine/threonine-protein kinase D3 (Homo sapiens). Particulars: at 1 µM.
For assay [4], the target named is T3, cGMP-dependent protein kinase 1 (Homo sapiens) (UniProt Q13976).
T3 sequence (whole entry): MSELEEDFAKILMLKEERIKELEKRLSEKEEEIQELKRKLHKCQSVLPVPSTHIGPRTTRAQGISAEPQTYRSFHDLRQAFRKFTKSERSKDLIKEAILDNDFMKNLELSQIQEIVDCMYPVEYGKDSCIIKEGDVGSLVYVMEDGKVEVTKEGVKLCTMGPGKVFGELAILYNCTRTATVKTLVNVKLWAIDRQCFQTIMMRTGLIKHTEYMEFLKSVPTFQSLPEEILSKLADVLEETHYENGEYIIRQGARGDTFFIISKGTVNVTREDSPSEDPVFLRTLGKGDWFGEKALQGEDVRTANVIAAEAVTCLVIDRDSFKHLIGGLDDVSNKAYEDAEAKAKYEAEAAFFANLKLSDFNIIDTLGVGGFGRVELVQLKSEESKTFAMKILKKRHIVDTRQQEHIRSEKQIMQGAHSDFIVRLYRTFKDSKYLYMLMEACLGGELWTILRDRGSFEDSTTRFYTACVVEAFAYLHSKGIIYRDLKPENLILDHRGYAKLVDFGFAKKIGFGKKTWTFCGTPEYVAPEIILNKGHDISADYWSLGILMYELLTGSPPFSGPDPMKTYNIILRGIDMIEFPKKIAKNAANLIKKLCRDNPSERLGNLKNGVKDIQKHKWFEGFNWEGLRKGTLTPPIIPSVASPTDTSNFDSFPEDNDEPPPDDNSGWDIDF
Particulars: at 0.1 µM.

Assay [5] concerns the target T3, cGMP-dependent protein kinase 1 (Homo sapiens). Particulars: at 1 µM.
Assay [6] addresses T4, cGMP-dependent protein kinase 2 (Homo sapiens) (UniProt Q13237).
T4 sequence (whole entry): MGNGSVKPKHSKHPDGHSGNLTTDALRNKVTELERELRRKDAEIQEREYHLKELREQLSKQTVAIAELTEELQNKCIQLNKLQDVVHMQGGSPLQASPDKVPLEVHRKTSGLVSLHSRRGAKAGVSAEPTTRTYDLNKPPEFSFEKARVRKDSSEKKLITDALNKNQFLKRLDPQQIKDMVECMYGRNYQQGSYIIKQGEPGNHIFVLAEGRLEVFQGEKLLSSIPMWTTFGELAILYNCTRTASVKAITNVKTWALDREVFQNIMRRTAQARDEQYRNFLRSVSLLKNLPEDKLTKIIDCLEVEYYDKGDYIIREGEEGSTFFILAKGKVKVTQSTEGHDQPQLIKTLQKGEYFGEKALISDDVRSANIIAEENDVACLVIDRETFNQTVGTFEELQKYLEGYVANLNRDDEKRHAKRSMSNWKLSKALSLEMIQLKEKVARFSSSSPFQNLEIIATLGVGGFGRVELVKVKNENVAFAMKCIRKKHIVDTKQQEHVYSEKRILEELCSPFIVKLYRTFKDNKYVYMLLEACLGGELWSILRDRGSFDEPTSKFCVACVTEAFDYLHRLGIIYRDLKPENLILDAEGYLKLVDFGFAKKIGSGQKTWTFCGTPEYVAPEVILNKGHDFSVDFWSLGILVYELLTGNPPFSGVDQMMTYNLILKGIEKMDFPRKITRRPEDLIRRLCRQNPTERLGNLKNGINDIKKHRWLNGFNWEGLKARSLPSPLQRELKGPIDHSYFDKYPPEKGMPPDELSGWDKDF
Particulars: at 0.1 µM.

The target of assay [7] is T4, cGMP-dependent protein kinase 2 (Homo sapiens). Particulars: at 1 µM.
Assay [8] concerns the target T5, cAMP-dependent protein kinase catalytic subunit PRKX (Homo sapiens) (UniProt P51817).
T5 sequence (whole entry): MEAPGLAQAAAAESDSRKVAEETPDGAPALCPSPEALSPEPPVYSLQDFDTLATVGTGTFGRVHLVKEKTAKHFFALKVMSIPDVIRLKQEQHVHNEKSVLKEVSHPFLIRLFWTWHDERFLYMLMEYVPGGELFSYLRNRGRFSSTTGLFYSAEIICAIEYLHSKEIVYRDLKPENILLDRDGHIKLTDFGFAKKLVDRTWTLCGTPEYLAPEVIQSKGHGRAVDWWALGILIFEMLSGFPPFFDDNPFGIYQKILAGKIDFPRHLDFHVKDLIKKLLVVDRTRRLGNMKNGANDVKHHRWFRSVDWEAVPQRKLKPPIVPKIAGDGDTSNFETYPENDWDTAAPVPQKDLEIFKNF
Particulars: at 0.1 µM.

The target of assay [9] is T5, cAMP-dependent protein kinase catalytic subunit PRKX (Homo sapiens). Particulars: at 1 µM.
Assay [10] deals with Rho-associated protein kinase 1 (Homo sapiens) (UniProt Q13464). Particulars: at 0.1 µM.

Data on seven compounds can be found in ChEMBL document CHEMBL1961873, “Compounds: GSK PKIS; Assays: Nanosyn kinase panel” (2012).

In general, inhibition refers to the change of the read-out against control, counted positive when it falls.

Each structure is given as a SMILES string. For part of these data: This list holds what a sample rich in strong results left over. This is a selection; strong and weak results do not stand in their true shares.

Sequence of UniProt Q13464 (Q13464 whole entry, looked up): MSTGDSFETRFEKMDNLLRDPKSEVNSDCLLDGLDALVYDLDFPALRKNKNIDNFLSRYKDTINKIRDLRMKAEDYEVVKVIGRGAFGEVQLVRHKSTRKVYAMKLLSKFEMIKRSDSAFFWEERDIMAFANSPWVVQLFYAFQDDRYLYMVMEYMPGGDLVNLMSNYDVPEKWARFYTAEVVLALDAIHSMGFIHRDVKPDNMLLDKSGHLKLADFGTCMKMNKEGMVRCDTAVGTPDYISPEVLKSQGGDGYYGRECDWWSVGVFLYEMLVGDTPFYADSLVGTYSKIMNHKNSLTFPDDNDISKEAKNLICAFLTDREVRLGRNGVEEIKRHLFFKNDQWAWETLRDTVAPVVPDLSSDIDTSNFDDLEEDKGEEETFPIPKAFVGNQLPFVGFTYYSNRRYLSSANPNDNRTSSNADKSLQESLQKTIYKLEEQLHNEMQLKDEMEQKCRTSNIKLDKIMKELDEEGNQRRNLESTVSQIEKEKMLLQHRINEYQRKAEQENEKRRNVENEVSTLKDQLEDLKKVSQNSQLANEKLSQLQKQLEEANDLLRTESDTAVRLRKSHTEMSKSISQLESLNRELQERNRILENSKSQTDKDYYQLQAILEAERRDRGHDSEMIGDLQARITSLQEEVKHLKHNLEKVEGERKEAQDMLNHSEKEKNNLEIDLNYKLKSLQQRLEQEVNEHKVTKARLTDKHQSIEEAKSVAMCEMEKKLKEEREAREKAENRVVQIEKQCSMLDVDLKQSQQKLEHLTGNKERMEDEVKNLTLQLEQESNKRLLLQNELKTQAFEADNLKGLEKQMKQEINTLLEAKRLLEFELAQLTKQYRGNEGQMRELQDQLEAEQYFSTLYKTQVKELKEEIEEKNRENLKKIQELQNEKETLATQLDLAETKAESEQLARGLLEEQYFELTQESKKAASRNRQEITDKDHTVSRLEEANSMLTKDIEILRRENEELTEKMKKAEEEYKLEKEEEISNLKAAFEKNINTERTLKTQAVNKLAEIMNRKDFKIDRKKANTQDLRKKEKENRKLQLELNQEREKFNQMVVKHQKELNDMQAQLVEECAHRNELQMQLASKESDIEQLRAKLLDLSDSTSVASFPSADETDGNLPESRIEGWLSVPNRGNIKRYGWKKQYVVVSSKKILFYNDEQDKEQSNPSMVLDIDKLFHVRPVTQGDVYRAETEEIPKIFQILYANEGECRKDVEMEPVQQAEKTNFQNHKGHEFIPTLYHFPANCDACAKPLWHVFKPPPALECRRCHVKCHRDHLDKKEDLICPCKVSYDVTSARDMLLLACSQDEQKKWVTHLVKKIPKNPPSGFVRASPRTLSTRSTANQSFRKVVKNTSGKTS

With `Fc1ccc(-c2ncn(C3CCNCC3)c2-c2ccnc(Oc3cccc(C(F)(F)F)c3)n2)cc1`, the inhibition turned out to be 4.6% in assay [1]; 4.8% in assay [2]; 5.25% in assay [3]; 4.91% in [4]; 3.98% in assay [5]; 3.5% in assay [6]. Further, the inhibition in [7] came out at 3.81%; in [8], 2.8%; in assay [9], 3.28%; in assay [10], 2.56%.
Regarding `O=C(O)c1ccc(Oc2nccc(-c3c(-c4ccc(F)cc4)ncn3C3CCNCC3)n2)cc1`, the inhibition came to 3.6% in [1]; 4.91% in [2]; 5.35% in [3]; 5.36% in [4]; 6.26% in [5]; 3.56% in assay [6]. Moreover, the inhibition amounted to 6.47% in [7], 3.24% in [8], 3.39% in assay [9] and 2.05% in [10].
`Cc1cccc(Oc2nccc(-c3c(-c4ccc(F)cc4)ncn3C3CCNCC3)n2)c1C`: the inhibition in assay [1] is 14.2%; in [2], 5.42%; in assay [3], 15.4%; in assay [4], 2.47%; in assay [5] it was 1.81%; in assay [6], 0.96%. The inhibition in assay [7] was 1.79%; in [8] it was 1.88%; in assay [9], 2.55%; in [10], 1.8%.
Regarding `O=C1NC(=O)C(c2cccc([N+](=O)[O-])c2)=C1Nc1cc(Cl)c(O)c(Cl)c1`, the inhibition in assay [1] came out at 2.21%; in assay [2] it was 1.6%; in [3], 3.53%; in assay [4], 2.61%; in [5], 1.99%; in assay [6], 2.1%. Further, the inhibition in assay [7] was found to be 3.19%; in [8] it was 3.28%; in assay [9] it was 2.86%; in [10], 0.34%.
As for `CC(C)(C)c1ccc(Oc2nccc(-c3c(-c4ccc(F)cc4)ncn3C3CCNCC3)n2)cc1`, the inhibition in assay [1] was 8.82%; in [2], 4.02%; in assay [3], 7.89%; in [4] it was 2.83%; in assay [5] it was 1.94%; in assay [6], 2.15%. Besides, the inhibition came out at 3.52% in assay [7], 1.07% in assay [8], 2.76% in assay [9] and 2.14% in [10].
On to `COc1ccccc1C1=C(Nc2ccccc2)C(=O)NC1=O`, for which the inhibition stood at 3.26% in assay [1]; 2.78% in assay [2]; 3.43% in assay [3]; 2.15% in assay [4]; 3.55% in assay [5]; 1.63% in [6]. Also, the inhibition in [7] was 5.24%; in assay [8], 2.27%; in assay [9], 2.75%; in assay [10], -0.62%.
For `Fc1ccc(-c2ncn(C3CCNCC3)c2-c2ccnc(Oc3ccc(Cl)cc3)n2)cc1`, the inhibition was 1.15% in [1]; 0.31% in assay [2]; 1.49% in assay [3]; 1.06% in [4]; 0.7% in [6]; 1.44% in assay [7]. Further, the inhibition in assay [8] was 0.98%; in assay [9], 1.04%; in assay [10], 1.45%.
